# Assay results published in PubChem BioAssay AID1345083 (National Center for Advancing Translational Sciences (NCATS), 2018).
# About 6,200 (6.6%) of roughly 94,000 compounds were called active. This list was built around the results that the source calls inconclusive (neither active nor inactive); the mix of calls is not that of the screen. The call rests on the fitted dose curve; in most records, active means well fitted inhibition curve with a large enough effect; inconclusive means small, poorly fitted or top-dose-only effect; inactive means flat fitted curve, though single readings scatter. Potencies beside an inconclusive call are fits to weak or partial responses and may not hold up.
# Experiment: Cytotoxic Profiling in HEK 293 Cell Line of Diverse Libraries Using Quantitative High-Throughput Screening; further: nearly all actives have a fitted effect of over 60% in size
# Details: HEK 293 viability, ATP luminescence (CellTiter-Glo), 48-72 h; activity change, negative = cytotoxicity: at 115 µM (top of the series) unless noted; series mostly up to 115 µM
# Procedure, shortened: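 Read-out: CellTiter-Glo ATP luminescence. Cells: HEK 293, 250 cells/well. Exposure: 48 or 72 hr, 37 degree Celsius.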
# On the % scale 0 is the no-effect control and ±100 the full control effect; potency means the concentration at half of the fitted maximal effect; tags describe the fitted curve by direction and shape.
Structure (SMILES),Potency,"activity change, negative = cytotoxicity"
O=C(Nc1ccc([C@@H](O)[C@H]2COCC(=O)N2Cc2ccc(F)cc2)cc1)c1ccccc1,active: 100 µM,–
Cc1ccc([S+](=O)([O-])NC2CCN(c3ccc4nnc(-c5ccccc5)n4n3)C2)cc1 (stereo not drawn),"inconclusive: 56.2 µM [inhibitor, partial curve, poor fit]",–
CC1(COc2ccccc2)COc2ccc(C(=O)NCCc3ccccc3)cc2N1 (stereo not drawn),"inconclusive: 44.7 µM [inhibitor, full curve]",–
CN(C)c1ccc(-c2nc(C3CCOC3)no2)cc1 (stereo not drawn),"inconclusive: 39.8 µM [inhibitor, partial curve]",–
COc1ccc(OC)c(-c2cnc3[nH]cc(CC(N)=O)c3c2)c1,–,inactive: -25.8% [at 172 µM]
COc1ccc(-c2noc([C@@H]3C[C@H](NS(=O)(=O)c4ccc5ccccc5c4)CN3C)n2)cc1,"inconclusive: 20 µM [inhibitor, full curve]",–
CCn1c(=O)c2ccnn2c2ccc(C(=O)NCc3ccc(OC)cc3OC)cc21,"inconclusive: 79.4 µM [inhibitor, partial curve, poor fit]",–
Cc1ccc(C)c(-c2cc3c(=O)n(CCNC(=O)c4cccc(F)c4)ccn3n2)c1,"inconclusive: 10 µM [inhibitor, full curve, poor fit]",–
CN1CC(=O)N(c2ccccc2F)Cc2c(NCC(C)(C)C)ncnc21,"inconclusive: 79.4 µM [inhibitor, single point]",–
CC1(C)[C@H](Cc2cc(CC3CCCCC3)on2)C[C@@H]1NC(=O)c1ccccc1,active: 31.6 µM,–
COc1ccc2nc([C@H]3CCN(Cc4ccccc4F)C3)[nH]c2c1,"inconclusive: 100 µM [inhibitor, partial curve]",–
O=C(c1ccc(F)cc1F)N1CCCN(c2cc(-c3ccccc3)[nH]n2)CC1,"inconclusive: 50.1 µM [inhibitor, partial curve, poor fit]",–
O=C(NC1CCCCC1)[C@@H]1Cc2nc[nH]c2CN1Cc1ccc(C(F)(F)F)cc1,"inconclusive: 100 µM [inhibitor, partial curve]",–
COCCN1CC(CO)C2(CCN(C(=O)Cc3ccccc3)CC2)C1 (stereo not drawn),"inconclusive: 79.4 µM [inhibitor, partial curve, poor fit]",–
COc1ccc(CCNC(=O)c2ccc3nnc(-c4ccc(F)cc4)n3c2)cc1,–,inactive: -12.3%
CC(C)N1CCOC[C@H]1c1ncc(-c2ccc(OC(F)(F)F)cc2)[nH]1,"inconclusive: 100 µM [inhibitor, partial curve]",–
COc1cccc(CN2Cc3nc(N4CCN(C)CC4)ccc3OCC2=O)c1,"inconclusive: 100 µM [inhibitor, partial curve, poor fit]",–
CCc1noc(-c2cn(C3CCN(C(=O)c4cccc5[nH]ccc45)CC3)nn2)n1,"inconclusive: 39.8 µM [inhibitor, partial curve, poor fit]",–
COc1cc(CN2CCC3(CCN(CC4CC4)CC3)C(CO)C2)ccc1F (stereo not drawn),"inconclusive: 50.1 µM [inhibitor, partial curve, poor fit]",–

Structure (SMILES),Potency,"activity change, negative = cytotoxicity"
CC(C)c1nc(-c2ccc(OC3CCN(C(=O)CCc4nc5ccccc5[nH]4)C3)cc2)no1 (stereo not drawn),"inconclusive: 39.8 µM [inhibitor, partial curve, poor fit]",–
Cc1ccc(-n2nc3n(c2=O)CCN([S+](=O)([O-])c2cccs2)C3)cc1,"inconclusive: 63.1 µM [inhibitor, partial curve, poor fit]",–
C=CCOC(=O)C1=C(C)N=C2SC=C(CC(=O)NCC3CC3)N2C1c1ccc(OC)c(OC)c1 (stereo not drawn),"inconclusive: 50.1 µM [inhibitor, partial curve, poor fit]",–
Cc1ccc(S(=O)(=O)N2CCCC(Cn3c(C4CC4)nc4cccnc43)C2)cc1 (stereo not drawn),"inconclusive: 50.1 µM [inhibitor, partial curve, poor fit]",–
CNC(=O)[C@@H](c1ccc(OC)cc1)N1CCC[C@H]1C(=O)NCC1CCCCC1,"inconclusive: 112 µM [inhibitor, partial curve]",–
Cc1nnc2ccc(N3CCCC(NC(=O)c4cccc(C(F)(F)F)c4)C3)nn12 (stereo not drawn),"inconclusive: 31.6 µM [inhibitor, partial curve, poor fit]",–
CCOC(=O)C1=C(C)NC(=O)NC1c1ccccc1 (stereo not drawn),–,inactive: -2.03%
COc1ccc2c(c1)OCC(C(=O)N1CCCN(c3ncccn3)CC1)C2 (stereo not drawn),–,inactive: -3.67%
COc1ccc(-c2[nH]nc3ncc(-c4ccc([S+](C)(=O)[O-])cc4)nc23)cc1F,"inconclusive: 14.1 µM [inhibitor, partial curve, poor fit]",–
CCN1C(=O)Cc2cc(C(=O)NCc3c(C)cc(C)cc3C)ccc21,active: 39.8 µM,–
COCCN1CCCCCC(O)c2cc(C(=O)NCc3ccc(N4CCC(C)CC4)cc3)ccc21 (stereo not drawn),"inconclusive: 50.1 µM [inhibitor, partial curve, poor fit]",–
CC(C)CNC(=O)C1c2ccccc2C(=O)N(Cc2ccco2)C12CCCC2 (stereo not drawn),"inconclusive: 28.2 µM [inhibitor, full curve]",–
Cc1ccc(CN2CC[C@H](c3nc4cc(C)ccc4o3)C2)cc1,"inconclusive: 100 µM [inhibitor, partial curve, poor fit]",–
COc1cccc(Nc2ncc3c(n2)C(C)(C(=O)N2CC[S+](=O)([O-])CC2)CC3)c1 (stereo not drawn),–,inactive: 2.1% [at 172 µM]
c1ccc(Nc2cc3c(cn2)NCCN(Cc2ccccn2)C3)cc1,"inconclusive: 126 µM [inhibitor, single point]",–
Cc1ccc(Cl)cc1NC(=O)Nc1cccc(-c2ccc(N3CCOCC3)nn2)c1,"inconclusive: 89.1 µM [inhibitor, single point]",–
COCCNC(=O)c1cc(C(C)(C)C)nc2c1cnn2C,"inconclusive: 100 µM [inhibitor, partial curve, poor fit]",–
O=C(NCc1ccccn1)c1ccc2c(c1)n(Cc1cccc(F)c1)c(=O)c1ccnn12,"inconclusive: 89.1 µM [inhibitor, single point]",–
CCN(CC)C(=O)c1cc2c(s1)CCC(C(=O)N1CCN(c3ccccn3)CC1)C2 (stereo not drawn),"inconclusive: 50.1 µM [inhibitor, partial curve, poor fit]",–
